Experimental data: PubChem BioAssay AID504832 (National Center for Advancing Translational Sciences (NCATS), 2011)
About 18,000 (5.8%) of roughly 310,000 compounds were called active. Inconclusive results, whose numbers are uncertain, are shown with a selection of clear calls. Calls come from the whole dose curve; as a rule, active = well fitted inhibition curve with a large enough effect; inconclusive = small, poorly fitted or top-dose-only effect, or another doubt; inactive = no such curve, though single readings can be large or run the other way. No potency is given beside an inconclusive call; the fits are too rough.
% is set by controls: 0 for no effect and ±100 for the full control effect; potency is the fitted concentration of half-maximal effect; tags give direction and shape of the fitted curve.

Assay: Primary qHTS for delayed death inhibitors of the malarial parasite plastid, 48 hour incubation
Conditions: P. falciparum luciferase growth in erythrocytes; series mostly up to 28.7 µM; activity change, negative = inhibition: at the top concentration
Outline: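 Parasite viability was followed by luminescence of a genomically integrated firefly luciferase. Cultures held 0.1% parasitemia at 2% hematocrit (final), incubated under 5% CO2 at 37 C.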
With `Cc1cccc2sc(N(CCCN(C)C)C(=O)CCc3ccccc3)nc12` the Potency was inconclusive [inhibitor, single point]. For `Cc1ccccc1Cn1c(-c2cncs2)nc2ccccc21`, the Potency was active: 1.47 µM. In the case of `Cc1ccc(NC(=O)CCNC(=O)c2ccc(Br)cc2)nc1`, the “activity change, negative = inhibition” value is reported as inactive: 33.9%. In the case of `O=C(Cc1ccc([N+](=O)[O-])cc1)N1CCc2ccccc2C1`, the “activity change, negative = inhibition” value is reported as inactive: -4.04%. With `Cc1cccc(CCNC(=O)c2cc(S(=O)(=O)N3CCCCC3)c[nH]2)c1` the Potency was inconclusive [inhibitor, partial curve, poor fit]. With `COc1ccc(/C=N/NC(=O)c2cccnc2)cc1Cn1nc([N+](=O)[O-])c(Br)c1C` the Potency was inconclusive [inhibitor, partial curve, poor fit]. With `Cc1ccc2[nH]c(=O)c(C3C(C#N)=C(N)Oc4c3ccc3cccnc43)cc2c1` (configuration not stated) the Potency was inconclusive [inhibitor, single point]. For `Oc1ccc(/C=N/Nc2nc(-c3ccc(Cl)cc3)cc(C(F)(F)F)n2)cc1`, the Potency was inconclusive [inhibitor, partial curve, poor fit]. With `CC(C)OP(=O)(OC(C)C)C(Nc1ccc([N+](=O)[O-])cc1)c1cccc([N+](=O)[O-])c1` (configuration not stated) the Potency was inconclusive [inhibitor, single point]. For `CCCCNC(=O)O[C@H]1C[C@@H]2CCN3C(=O)CCC(C)(C)[C@H](C1)[C@H]23`, the “activity change, negative = inhibition” value was inactive: 0.833%. In the case of `COC(=O)[C@@]1(Cc2ccc(F)cc2)[C@H]2c3cc(C(=O)N(C)C)n(Cc4ccc(OC(F)(F)F)cc4)c3C[C@H]2CN1C(=O)c1ccccc1`, the Potency is reported as active: 1.85 µM. In the case of `Cc1ccc(S(=O)(=O)N2[C@@H](c3ccc(F)cc3)C(C(=O)O)=CC[C@H]2c2ccc3c(c2)OCO3)cc1`, the Potency is reported as inconclusive [inhibitor, single point]. For `CC(C)(C)c1ccc(O)c(N=Cc2cc3c(cc2[N+](=O)[O-])OCO3)c1`, the Potency was inconclusive [inhibitor, partial curve]. With `CCCN(CC(=O)Nc1cc(Cl)ccc1Cl)C(=O)c1ccc(N2CCCC2=O)cc1` the Potency was inconclusive [inhibitor, partial curve]. For `CCOc1cc(N2CCOCC2)c(OCC)cc1NC(=O)c1cc(C)cc(C)c1`, the Potency was active: 13.1 µM. For `O=C(c1cnc(N2CCN(c3ncccn3)CC2)c2ccccc12)N1CCN(c2ncccn2)CC1`, the Potency was inconclusive [inhibitor, single point]. With `COCCN(CCOC)C(=O)COC(=O)c1cc([N+](=O)[O-])ccc1Cl` the “activity change, negative = inhibition” value was inactive: -12.6%.
